Article PMC4336329 (PLoS ONE, 2015)
Hit rate of the full screen: of about 310,000 compounds, about 2,200 (0.71%) showed an effect of 50% or more. The effect is printed as a negative number. The list shows a part of the results.

Molecular target: human ether-à-go-go-related gene (hERG) potassium channel (human, UniProt Q12809)
Assay: primary screen, population patch clamp on CHO cells stably expressing hERG

Sequence of human ether-à-go-go-related gene (hERG) potassium channel (Q12809 whole entry, looked up): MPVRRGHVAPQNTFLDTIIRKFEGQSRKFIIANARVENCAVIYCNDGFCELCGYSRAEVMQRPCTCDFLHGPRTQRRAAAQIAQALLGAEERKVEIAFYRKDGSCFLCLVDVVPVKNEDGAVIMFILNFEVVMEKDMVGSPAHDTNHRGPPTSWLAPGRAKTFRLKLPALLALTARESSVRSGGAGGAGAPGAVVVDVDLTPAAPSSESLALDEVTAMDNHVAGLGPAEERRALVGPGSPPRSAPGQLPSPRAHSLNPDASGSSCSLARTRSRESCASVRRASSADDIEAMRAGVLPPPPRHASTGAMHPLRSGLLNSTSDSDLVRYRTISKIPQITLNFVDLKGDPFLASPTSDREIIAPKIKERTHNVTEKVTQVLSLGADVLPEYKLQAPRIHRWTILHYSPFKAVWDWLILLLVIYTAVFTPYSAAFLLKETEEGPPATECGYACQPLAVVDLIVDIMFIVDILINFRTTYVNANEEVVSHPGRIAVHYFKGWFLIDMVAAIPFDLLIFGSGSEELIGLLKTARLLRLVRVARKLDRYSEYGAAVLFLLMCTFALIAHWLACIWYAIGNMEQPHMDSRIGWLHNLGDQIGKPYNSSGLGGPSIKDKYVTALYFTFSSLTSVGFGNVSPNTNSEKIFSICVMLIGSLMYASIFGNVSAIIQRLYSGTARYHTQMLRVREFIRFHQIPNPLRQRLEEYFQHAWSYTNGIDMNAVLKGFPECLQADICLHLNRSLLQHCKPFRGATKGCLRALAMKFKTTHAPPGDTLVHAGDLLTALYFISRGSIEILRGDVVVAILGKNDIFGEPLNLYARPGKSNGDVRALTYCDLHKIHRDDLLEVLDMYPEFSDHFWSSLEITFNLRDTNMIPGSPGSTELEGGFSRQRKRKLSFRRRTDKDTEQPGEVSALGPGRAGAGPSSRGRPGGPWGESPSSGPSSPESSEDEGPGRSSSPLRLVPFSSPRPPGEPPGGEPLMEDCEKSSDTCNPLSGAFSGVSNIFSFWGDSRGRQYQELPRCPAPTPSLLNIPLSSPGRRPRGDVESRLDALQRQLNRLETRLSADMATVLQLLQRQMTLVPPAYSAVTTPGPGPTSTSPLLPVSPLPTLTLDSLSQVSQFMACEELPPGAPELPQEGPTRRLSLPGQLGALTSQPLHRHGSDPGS

Row | SMILES | hERG current change (%, negative = inhibition) at 1uM
1 | COC(=O)c1ccc(S(=O)(=O)NCc2cccc(OC)c2)n1C | 7.83%
2 | O=C(Nc1nc(-c2ccc(F)c(F)c2)cs1)Nc1ccc(F)cc1F | 14%
3 | Cc1ccccc1-c1nc(CS(=O)CC(=O)NCCN2CCOCC2)c(C)o1 (centres unmarked) | 10.6%
4 | CS(=O)(=O)N(CC(=O)N1CCCCCC1)c1ccc(Cl)cc1 | 11.7%
5 | Cc1ccc(S(=O)(=O)NCc2ccccn2)c(C)c1 | 4.97%
6 | COc1cccc(CN2CCc3ccc(NC(=O)CCc4ccc(C)cc4)cc3C2)c1O | -2.95%
7 | COc1ccc(N(C)S(=O)(=O)c2cccc(C(=O)NCC(c3ccco3)N3CCCC3)c2)cc1 (centres unmarked) | -1.85%
8 | Cc1cccc(-c2nsc(SCC(=O)NCc3ccco3)n2)c1 | 9.34%
9 | Cc1ccc(NC(=O)OCc2ccccc2S(C)=O)cc1 (centres unmarked) | -2.24%
10 | COc1cc(NC(=O)CN(c2ccc(C)cc2)S(=O)(=O)c2c(C)n[nH]c2C)cc(OC)c1 | 10.2%
11 | Cc1noc(C)c1S(=O)(=O)Nc1ccc(C(=O)O)cc1 | 6.47%
12 | O=C(NCCc1ccccc1)c1ccc2[nH]c(=O)c(=O)[nH]c2c1 | 7.46%
13 | O=C(NCCc1ccc(Cl)cc1)c1cc(-c2ccncc2)nc2ccccc12 | 9.38%
14 | Cc1oc2nc(SCC(=O)NCc3cccnc3)nc(N)c2c1C | -2.53%
15 | COc1cc(NC(=O)c2ccc3c(SCC(=O)O)c4c(nc3c2)CCC4)cc(OC)c1OC | 9.89%
16 | COC(=O)C1=C(C)n2nnnc2NC1c1ccc(Cl)cc1 (centres unmarked) | 2.32%
17 | CCOC(=O)C(CC)n1cnc2c(nnn2-c2ccc(C)cc2)c1=O (centres unmarked) | -5.14%
18 | O=C(Nc1ccccc1Br)c1ccc(N2CCCC2=O)cc1 | 10.1%
19 | CCN1CCN(c2nnc(-c3ccc(C)cc3)c3ccccc23)CC1 | -6.01%
20 | COc1ccc(/C=C/C(=O)N2CCN(c3ccccc3)CC2)cc1S(=O)(=O)N1CCOCC1 | 5.11%
21 | O=C(CSc1ncccn1)Nc1ncc(C(F)(F)F)cc1Cl | 36.6%
22 | COc1ccc(S(=O)(=O)NCC2CC3C=CC2C3)cc1OC (centres unmarked) | 2.85%
23 | O=c1nc2n(c3cccc(Cl)c13)CCCCC2 | 6.32%

Row | SMILES | hERG current change (%, negative = inhibition) at 1uM
24 | COc1cccc(NC(=O)C(C#N)Cc2ccncc2)c1 (centres unmarked) | -1.94%
25 | COc1ccc(CCNC2CCCCCC2)cc1 | 12.8%
26 | CC(=O)c1cccc(NCC(=O)N2CCN(S(=O)(=O)c3ccccc3)CC2)c1 | 1.24%
27 | Cc1ccc(S(=O)(=O)N2CCCC(C(=O)N3CCN(C)CC3)C2)cc1 (centres unmarked) | 15.6%
28 | CC(C)c1c(C(=O)N/N=C/c2ccc(OCc3ccc(F)cc3)cc2)nnn1-c1nonc1N | 16.7%
29 | O=C(C1=C[C@H](C2CC2)C[C@H](OCCCCO)O1)N1CCOCC1 | 15.6%
30 | Cc1cccc(N2C(=O)CS/C2=N\NC(=O)c2ccc(Br)cc2)c1C | 8.97%
31 | COc1cccc(C(=O)NNC(=O)C(=O)Nc2cccc3ccccc23)c1 | 14.5%
32 | Cc1ccc(C2=NN(CCC(=O)NC3CCCC3)C(=O)CC2)cc1 | -3.78%
33 | Cc1ccc(CNCC2CCCO2)s1.Cl (centres unmarked) | 7.59%
34 | CC(=O)N1CCC2(CC1)C(C#N)=C(N)Oc1n[nH]c(CSc3ccc(C)cc3)c12 | 9.32%
35 | CC1CCN(C(=O)CN(C)S(=O)(=O)c2cccc3nsnc23)CC1 | 7.74%
36 | COc1ccc(C2C3=C(CC(C)(C)CC3=O)Nc3n[nH]c(C)c32)cc1 (centres unmarked) | -1.8%
37 | CN1CCN(C(=S)NC(=O)c2cccc(S(=O)(=O)N(C)C)c2)CC1 | 16%
38 | CC(NC(=O)COc1ccccc1)C(=O)OCC(=O)c1cc2ccccc2o1 (centres unmarked) | 15.4%
39 | O=C(CN(C1CCCCC1)S(=O)(=O)c1ccc(F)cc1)NC1CC1 | 5.04%
40 | COc1ccc(CN2CCN(c3ccccc3OC)CC2)cc1OC.O=C(O)C(=O)O | -40.3%
41 | CCN(C(=O)CSc1nnc(NC2CCCCC2)s1)C1CCS(=O)(=O)C1 (centres unmarked) | 2.2%
42 | CC(=O)Nc1ccc(S(=O)(=O)Nc2nc3ccccc3nc2N2CCCC2)cc1 | -3.61%
43 | C/C(=N\OCC(=O)Nc1ccc(Br)cc1)c1cccs1 | 9.14%
44 | CCc1ccc(Nc2nnc(SC3CCOC3=O)s2)cc1 (centres unmarked) | 8.47%
45 | CS(=O)(=O)Nc1ccc(C(=O)N2CCN(c3ccccc3)CC2)cc1 | -31.4%
46 | Cc1nn(C(C)C(=O)NCCc2ccccc2)c(=O)c2cc3occc3n12 (centres unmarked) | 15.6%

Row | SMILES | hERG current change (%, negative = inhibition) at 1uM
47 | N#CCCn1nc(Cc2cccc3ccccc23)c(C#N)c1N | 11.9%
48 | COC(=O)Cc1[nH]nc2c1C(c1cc(OC)c(OC)c(OC)c1)C(C#N)=C(N)O2 (centres unmarked) | 9.7%
49 | Cc1ccc(C)n1CCN1CCN(C(=O)c2ccc(Cl)cc2)CC1 | -6.34%
50 | CC(C)NC(=O)N1CCC(n2nccc2NC(=O)CCOc2ccccc2)CC1 | 17.8%
51 | O=C(NN1C(=O)C2C3C=CC(C4CC34)C2C1=O)c1cccc(Br)c1 (centres unmarked) | 12.6%
52 | O=C(NCc1ccc(C(F)(F)F)cc1)C1CC(c2c(Cl)cccc2Cl)=NO1 (centres unmarked) | 4.22%
53 | CCC1CCCCN1CCCNC(=O)c1ccc2c(=O)n(Cc3ccc(OC)cc3)c(=O)[nH]c2c1 (centres unmarked) | 10.6%
54 | COc1cc(NC(=O)CN2C(=O)NC3(CCOc4ccccc43)C2=O)cc(OC)c1 (centres unmarked) | 5.65%
55 | COc1ccc([N+](=O)[O-])cc1NS(=O)(=O)c1cc(C(=O)O)ccc1OC | 8.6%
56 | COc1cccc(CN(C)C(=O)CC23CC4CC(CC(C4)C2)C3)c1OC | -8.38%
57 | CC(C)CC(=O)NC(=S)NNC(=O)c1ccc(NC(=O)C2CCCCC2)cc1 | 10.3%
58 | CCN(CC(=O)Nc1cc(Cl)ccc1C)C(=O)Cn1c(=O)cnc2ccccc21 | -1.19%
59 | CS(=O)(=O)N1CCN(c2ccc(NC(=O)COc3ccccc3)cc2)CC1 | -5.24%
60 | CN1CCN(c2ccc(NC(=O)c3cccc(OCc4ccccc4)c3)cc2)CC1 | 8.13%
61 | O=C(Nc1ccccc1Cl)c1cc(S(=O)(=O)N2CCCC(C(=O)O)C2)ccc1F (centres unmarked) | -2.71%
62 | CN(C)C(=O)C(=O)c1cccn1-c1ccccc1C#N | -2.28%
63 | COc1cc(C2C(C#N)=C(N)Oc3cc(O)ccc32)cc(OC)c1OC (centres unmarked) | -0.47%
64 | O=C(CN1C(=O)C2C3C=CC(C3)C2C1=O)Nc1nc(-c2ccccn2)cs1 (centres unmarked) | 4.94%
65 | CC(C)c1[nH]nc2c1C(c1cccnc1)C(C#N)=C(N)O2 (centres unmarked) | 2.83%
66 | CC(C)CC(=O)Nc1nc2c(c(=O)[nH]1)CCCC2 | 9.13%
67 | COc1ccc(CCNC(=O)C2CCN(S(C)(=O)=O)CC2)cc1 | -7.11%
68 | CCCn1c(SCCc2ccccc2)nc2c1c(=O)[nH]c(=O)n2C | 9.8%
69 | O=C(NCCN1CCCCC1)Nc1ccccc1Cl | 15.3%

Row | SMILES | hERG current change (%, negative = inhibition) at 1uM
70 | CC(=O)c1ccc(OCC(=O)N2CCCC(N(C)Cc3ccccc3)C2)cc1 (centres unmarked) | -1.38%
71 | CCOCCCn1c(SCC(=O)Nc2ccc3[nH]c(=O)[nH]c3c2)nc2ccccc2c1=O | 14.5%
72 | COc1ccccc1C(=O)Nc1cccc2cccnc12 | 9.04%
73 | CCOc1ccccc1NC(=O)CSc1nnc(CNC(=O)c2c(F)cccc2Cl)o1 | 11.3%
74 | O=C1CC(c2ccccc2F)C2=C(COC2=O)N1 (centres unmarked) | 14.5%
75 | Cc1noc(C)c1CC(=O)N1CCCC(N2CCN(c3ccccc3F)CC2)C1 (centres unmarked) | 17.3%
76 | FC(F)(F)c1cc(-c2ccccc2)nc(NCc2cccnc2)n1 | 1.08%
77 | COc1cc(/C=C/C(=O)OCC(=O)N2CCc3ccccc3C2)ccc1O | 2.33%
78 | CCN(CC)C(=O)CN1C(=O)c2cccc3cccc(c23)C1=O | 11.6%
79 | O=C(CCNC(=O)c1ccccc1Cl)Nc1ccc2c(c1)OCO2 | 12.9%
80 | CC1CC(=O)N(c2ccc(N(C)Cc3ccccc3)c([N+](=O)[O-])c2)C1=O (centres unmarked) | 5.16%
81 | Cc1ccc(SCc2nc3ccccc3n2CC(=O)Nc2ccc(Cl)cc2)cc1 | 6.08%
82 | c1ccc(CSc2nnnn2-c2ccc3c(c2)OCCO3)nc1 | 11.4%
83 | CCOc1ccc(NC(=O)C2C3CCC4C(CCC32)C4(Cl)Cl)cc1 (centres unmarked) | 12.7%
84 | CC1=CC(C)C(/C=N/n2cnnc2)C(C)C1 (centres unmarked) | -4.48%
85 | CC1CCCN(c2ccc([N+](=O)[O-])cc2C(=O)c2ccccc2)C1 (centres unmarked) | 3.39%
86 | CCOC(=O)N1CCC(NC(=O)c2cc(C(=O)NC3CCCC3)ccc2CO)CC1 | 14.6%
87 | FC(F)(F)c1ccnc(N2CCN(Cc3cnc(-c4ccccc4)[nH]3)CC2)c1 | 3.11%
88 | O=c1c2ccccc2nc(N2CCCC2)n1-c1ccc(Cl)cc1 | 1.69%
89 | COc1ccc(OCC(=O)Nc2ccc(NC(=O)c3ccccc3Cl)c(OC)c2)cc1 | -7.84%
